Source: PubChem BioAssay AID588342 (National Center for Advancing Translational Sciences (NCATS), 2011)
The campaign covered roughly 360,000 compounds. About 25,000 (6.9%) were called active. This list was built around the results that the source calls inconclusive (neither active nor inactive); the mix of calls is not that of the screen. The call rests on the fitted dose curve; in most records, active means well fitted inhibition curve with a large enough effect; inconclusive means small, poorly fitted or top-dose-only effect; inactive means flat fitted curve, though single readings scatter. Potencies beside an inconclusive call are fits to weak or partial responses and may not hold up.

target: Luciferin 4-monooxygenase (Photinus pyralis) (UniProt P08659); assay: qHTS profiling assay for firefly luciferase inhibitor/activator using purifed enzyme and Km concentrations of substrates (counterscreen for miR-21 project); conditions: purified FLuc, luminescence inhibition; activity change, negative = inhibition: at 57.5 µM (top of the series); further: nearly all actives have a fitted effect of over 55% in size;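 on activity change, negative = inhibition: plate controls were vehicle for no effect and reference inhibitor for full effect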
Chain of UniProt P08659 (P08659 whole entry, looked up): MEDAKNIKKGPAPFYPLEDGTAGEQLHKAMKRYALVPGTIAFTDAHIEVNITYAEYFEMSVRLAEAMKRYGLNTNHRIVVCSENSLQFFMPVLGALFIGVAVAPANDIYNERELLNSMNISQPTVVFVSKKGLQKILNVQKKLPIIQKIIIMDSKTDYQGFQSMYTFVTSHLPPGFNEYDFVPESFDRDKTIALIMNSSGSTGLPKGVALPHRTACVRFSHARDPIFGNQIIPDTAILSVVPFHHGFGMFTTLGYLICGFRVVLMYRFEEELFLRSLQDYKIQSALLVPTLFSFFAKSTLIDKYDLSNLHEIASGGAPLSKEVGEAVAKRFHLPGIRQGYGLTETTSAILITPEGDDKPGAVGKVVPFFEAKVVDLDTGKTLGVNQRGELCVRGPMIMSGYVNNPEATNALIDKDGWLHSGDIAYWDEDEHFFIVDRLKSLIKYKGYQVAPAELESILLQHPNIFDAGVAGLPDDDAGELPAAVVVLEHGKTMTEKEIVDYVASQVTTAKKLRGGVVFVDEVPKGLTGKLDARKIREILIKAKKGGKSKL
Outline: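 Purified P. pyralis luciferase, 10 nM final, with Km-level 10 uM D-luciferin and 10 uM ATP in 50 mM Tris acetate pH 7.5, 10 mM Mg acetate, 0.01% Tween-20, 0.05% BSA; 6-point qHTS titration about 60 µM downward; luminescence read.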
Potency means the concentration at half of the fitted maximal effect; tags describe the fitted curve by direction and shape.

Structure (SMILES) | activity change, negative = inhibition | Potency
CCc1noc(C)c1C(=O)N1CCN(S(=O)(=O)c2cccc(C(F)(F)F)c2)CC1 | inactive: 4.82% | –
Cc1ccn2cc(-c3cnoc3C)nc2c1 | – | inconclusive: 16.9 µM [inhibitor, partial curve]
Cc1cccc(NC(=O)Nc2cccs2)c1C | – | inconclusive: 30.1 µM [inhibitor, partial curve, poor fit]
COc1ccc(-c2ccc(N)cn2)cn1 | – | inconclusive: 39.8 µM [inhibitor, single point]
Nc1nc(-c2cccnc2)nc2sc3c(c12)CCCC3 | – | active: 1.07 µM
Oc1ccc(N2CCN(C(=S)NCCc3ccccc3)CC2)cc1 | – | inconclusive: 37.9 µM [inhibitor, partial curve, poor fit]
O=C(Cn1c(=O)sc2ccccc21)NCc1ccccn1 | – | inconclusive: 33.8 µM [inhibitor, partial curve, poor fit]
C/C(=N\NS(=O)(=O)c1ccc(Cl)cc1)c1ccc(NC(=O)c2ccco2)cc1 | – | inconclusive: 37.9 µM [inhibitor, partial curve, poor fit]
COc1ccc(OS(=O)(=O)Cc2ccccc2)cc1 | – | inconclusive: 23.9 µM [inhibitor, partial curve, poor fit]
O=C(Cc1ccccn1)c1ccc(F)cc1 | – | inconclusive: 26.9 µM [inhibitor, single point]
COC(=O)c1n[nH]n(-c2ccc(F)c(Cl)c2)c1=O | – | inconclusive: 26.9 µM [inhibitor, partial curve, poor fit]
NC(=O)C1(N2CCCCC2)CCN(C(=S)Nc2cc(F)cc(F)c2)CC1 | inactive: 0.861% | –
O=C(Cn1nnc(-c2ccc3c(c2)OCO3)n1)Nc1ccccc1C(=O)O | – | active: 15.1 µM
Cc1ccccc1OCC(=O)Nc1nc(C)c(C(=O)N(C)C)s1 | – | inconclusive: 33.8 µM [inhibitor, single point]
COc1ccccc1CCNC(=O)C(=O)NCC1OCCN1S(=O)(=O)c1cc(F)ccc1F (configuration not stated) | inactive: 7.98% | –
CCCSC1=C(C#N)C(c2cccs2)CC(=O)N1 (configuration not stated) | – | inconclusive: 37.9 µM [inhibitor, single point]
Cc1csc(NC(=O)CSc2nnc(C)c(=O)n2N)n1 | inactive: -3.01% | –
O=C(COC(=O)CNC(=O)c1ccc(Cl)cc1Cl)NC1CCCCC1 | – | inconclusive: 23.9 µM [inhibitor, single point]
CC(=O)c1cccc(NC(=O)[C@@H](NC(N)=O)C(C)C)c1 | inactive: -1.72% | –

Structure (SMILES) | activity change, negative = inhibition | Potency
Cc1ccc(C(=O)Nc2nnc(-c3ccc(C(C)(C)C)cc3)s2)cc1 | – | inconclusive: 16.9 µM [inhibitor, partial curve, poor fit]
Cc1ccccc1C(N)c1ccncc1 (configuration not stated) | inactive: 4.75% | –
CCc1cccc(CC)c1NC(=O)CN1CC(C)SC1=NC1CCCCC1 (configuration not stated) | inactive: 0.624% | –
Cc1c(CC(=O)NCCCC(=O)O)c(=O)oc2cc3c(cc12)CCC(C)(C)O3 | – | inconclusive: 16.9 µM [inhibitor, partial curve]
COC(=O)c1c(NC(=O)COC(=O)CC(NC(C)=O)c2ccccc2)sc(C)c1C (configuration not stated) | inactive: -0.752% | –
CS(=O)(=O)c1ccccc1-c1nc(-c2ccc(C(F)(F)F)cc2)no1 | – | inconclusive: 30.1 µM [inhibitor, single point]
CCCCc1ccc(C(=O)Nc2ccc3nc(N4CCN(CC)CC4)cc(C)c3c2)cc1 | – | inconclusive: 15.1 µM [inhibitor, partial curve]
O=C(O)CNC(=O)c1ccccc1 | inactive: 0.551% | –
Fc1ccc(-c2cc3ncc4c(n3n2)-c2cc(Cl)ccc2OC4)cc1 | inactive: -0.307% | –
Brc1cccc(CNCC2CCCO2)c1 (configuration not stated) | inactive: 0.619% | –
COc1ccc(/C=N/NC(=O)c2csc(-n3nc(C)cc3C(F)(F)F)n2)cc1 | – | inconclusive: 12 µM [inhibitor, partial curve]
CCC(=O)Nc1cccc(NC(=S)NC(=O)c2ccc(Cl)cc2Cl)c1 | – | inconclusive: 6.75 µM [inhibitor, full curve]
CC(C)N=c1scc(-c2cccs2)n1/N=C/c1ccc(O)c(O)c1O | – | active: 23.9 µM
CCN(Cc1nc2cc(OC)c(OC)cc2c(=O)[nH]1)C(=O)c1ccc(S(=O)(=O)N(C)C)cc1 | inactive: -7.1% | –
COC(=O)c1ccc(/C=N/Nc2nc3ccccc3[nH]2)cc1 | – | active: 8.49 µM
O=C(C1CCN(S(=O)(=O)c2ccccc2)CC1)N1CCc2ccccc21 | – | active: 21.3 µM
CCOC(=O)CSc1nc2ccc(NC(=O)c3ccc(Cl)cc3)cc2s1 | – | inconclusive: 3.79 µM [inhibitor, partial curve, poor fit]
O=C(Nc1ccccc1Cc1ccccc1)c1ccncc1 | – | inconclusive: 23.9 µM [inhibitor, single point]
